This note sets out measurements from article PMC12136788.

This is one part of the list.

First the molecules themselves.
B1: chr11:87793471:87793472:-_ENSMUSG00000020483_ENSMUST00000020775|mus_mus|mus_mus_mus_hu_False|68_78 (ssRNA)
RNA: GGGAGUUCUACAGUCCGACGAUCUGGACUUGAAAAUAAAAGAAUAAGCUGGAUCCCCCCACCCCUUACAGUGUCAACCCUACACGAGAGUUUUGAAGGCGACUCAUGAAAAUCAGCAGCUCAAACGGCAAUGACCACCCCACCCAACAGAGGAUUGAGCAUCA
B2: chr6:41757443:41757444:+_ENSG00000214736_ENST00000398881|hu_mus|hu_hu_hu_mus_False|58_88 (ssRNA)
RNA: GGGAGUUCUACAGUCCGACGAUCGAACCGUGCAGAGGCAACAUCUCGGAAUUCUGCGGGGGAUGGGGGGGCAGUGGGAAACUAGGCAGGCAAGGAGAGGGAGUCAACUUCAGCUGCCACUCAGGUAGGAUCUUGUGGUCACAGCAACAGAGGAUUGAGCAUCA
B3: chr1:168169525:168169526:+_ENSG00000143155_ENST00000367833|hu_hu|FALSE|FALSE (ssRNA)
RNA: GGGAGUUCUACAGUCCGACGAUCGUGCUCACUGCUCAUGAGACACACACAUCACUACUGCUGAGGUCCCACUUUGUGAUAAUUUAGAAAUCAUCCAAAUUUAACUCCAGAAAAUAUAAAUCUGGAAUAUGAAUGUGAAGACAGCAACAGAGGAUUGAGCAUCA
B4: chr4:148551591:148551592:-_ENSMUSG00000063077_ENSMUST00000060537|mus_hu|mus_mus_mus_hu_False|48_78 (ssRNA)
RNA: GGGAGUUCUACAGUCCGACGAUCACCUGACAAAAUUAAAUAUCCCUGUAAAUUAGACAAGAAGCAGCAGGCAACAAAGUCUUUGCUUUGAAAUAUGUGCCAGGAAAAGUCAUCUUGUUUUUAGAUCUCAAGAGACAGUUCACACAACAGAGGAUUGAGCAUCA
B5: chr7:140402705:140402706:+_ENSG00000090266_ENST00000247866|hu_hu|FALSE|FALSE (ssRNA)
RNA: GGGAGUUCUACAGUCCGACGAUCUCCGCUGAAGAACUCGCUCUGGAACACCUGGGAUCUGGUCAGCUGGGGGAACUGUCUAUACCGGGGCUCAAUGUGCACACCACCACCGGCAUGACGGACUCCACCAUCUCCAGCAGUCCGCAACAGAGGAUUGAGCAUCA
B6: chr7:100804371:100804372:+_ENSG00000106367_ENST00000337619|hu_mus|FALSE|FALSE (ssRNA)
RNA: GGGAGUUCUACAGUCCGACGAUCCAGGCCUCUCCCCCAACCUUCCCUUCCCUCCAAGUAGCAAGGUUAGAAAAACGUUAACUCUGUGGCUCCCUUCCCUGGCCCUGGCUGGACACUGGAGCCCAGGAGGAAGUGGGGGCUGGACAACAGAGGAUUGAGCAUCA
B7: 90661419_90661539_1048_CDS_ENSG00000112182_ENST00000537989|human|control|control (ssRNA)
RNA: GGGAGUUCUACAGUCCGACGAUCGUUCAGGAGCUGGGUCUGCAGGAAGCUGAAGCAGGAGUCCUCCAGGUUGUGCAUGCGCAGGAACUCAGCACAGCGGAUGACCUCGCGGAUGUUUUCUCUGCUGAGUAACAGCUUGGCAGUCAACAGAGGAUUGAGCAUCA
B8: 120833781_120834319_905_CDS_ENSMUSG00000025162_ENSMUST00000018274|mouse|control|control (ssRNA)
RNA: GGGAGUUCUACAGUCCGACGAUCCCCCUGCCAGGGGAGAGAGCCCAGGUUGAAGUACAUCAGCACGUACCCCAGAGACUCCAAGUCAUCCCUUCGAGAUUGUUCAAUGCCAAGGUGCGUGUUGAUGGAGGCAUAGCGUGCUGUCAACAGAGGAUUGAGCAUCA
B9: chr12:48362563:48362564:+_ENSG00000134291_ENST00000256686|hu_hu|hu_hu_hu_mus_False|48_88 (ssRNA)
RNA: GGGAGUUCUACAGUCCGACGAUCUCCGUCAAGCCCUUCGAUAGACCCAUAGACUCUAAACUGUAAUCACUUUGUAUGGGGAAGGAAAAAAAAAGCCAAAAACUUUCCAAAAAGCGGGGGUGGGGUGAGGCGGGAGGGGGAGGUCAACAGAGGAUUGAGCAUCA
B10: chr3:10015032:10015033:+_ENSMUSG00000027533_ENSMUST00000029046|mus_mus|mus_mus_mus_hu_True|8_98 (ssRNA)
RNA: GGGAGUUCUACAGUCCGACGAUCGUUUUUACCAUCACACGUAAUGAUACAAUCUGGCUUGGCCAUUGCGCCCAUUUUUCGCAAAGCUAUUCCCACUCCUAGCUCCUUCAUGUAUUCAUCAAAGCCUUGGCUUUCCACCAGGCGCAACAGAGGAUUGAGCAUCA
B11: chrX:114877694:114877695:+_ENSG00000102024_ENST00000355899|hu_hu|motif|central (ssRNA)
RNA: GGGAGUUCUACAGUCCGACGAUCGUUGAGUUUGGGGUUUCCACUGACAACAUCAGCAGGGGUAACAAACUGUCUGCAACCGGAUUUAUCUGCUUGUUGAAGCAUACUCUCAGCUCUCUUCAAAUCAUCUGUUUCAUUGAAACCCAACAGAGGAUUGAGCAUCA
B12: chr2:198351390:198351391:-_ENSG00000144381_ENST00000345042|hu_hu|hu_hu_hu_mus_False|78_88 (ssRNA)
RNA: GGGAGUUCUACAGUCCGACGAUCUCAUUCCCACCCUCCACAGAAAGGCUGCUUAACUUCUCAUCUGUGGUGACACAGCGCUACAGUCCUGAUGCUCACAGAACAGUAGAGAUGCCUCAGUGAUUUAAGUUGAAAGCAGGACACCAACAGAGGAUUGAGCAUCA
B13: chr17:45747064:45747065:+_ENSG00000108424_ENST00000290158|hu_hu|hu_hu_hu_mus_True|58_108 (ssRNA)
RNA: GGGAGUUCUACAGUCCGACGAUCGCCUACAGUCCAUGCUGUUGUGUCUCGAACAACUACACUGGGGUCUUUCAUUAAUUCUAUUAGGGUGGGCAUAGCCUGUAUGACUAAUGGUUUCAGUUGAUUAGGCUCUGGUCCUUCCAACAACAGAGGAUUGAGCAUCA
B14: chr5:153406784:153406785:-_ENSG00000055147_ENST00000520667|hu_mus|FALSE|FALSE (ssRNA)
RNA: GGGAGUUCUACAGUCCGACGAUCUUUCACCUUUAUCUCACUUUCUCGGGAAAGCAUCUCCAGAGCUUCUAGAUGUGAAAGGCCUUGAAACUCAUCAAAGAGUAGCCCAUAAUGAGUUUUCUUGUCUGUUUCCAUGGUUACUUCCAACAGAGGAUUGAGCAUCA

The test deals with T1, UNK ZnF1-3 (human, UniProt Q9C0B0 31-174).
T1 sequence: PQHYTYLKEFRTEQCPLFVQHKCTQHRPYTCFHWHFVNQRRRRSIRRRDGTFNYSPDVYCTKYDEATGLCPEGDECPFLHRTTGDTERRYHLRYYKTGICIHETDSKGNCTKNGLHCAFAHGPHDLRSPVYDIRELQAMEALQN
Description: nsRBNS (natural sequence RNA bind-n-seq); RBNS binding buffer (assumed for nsRBNS): 25 mM Tris pH 7.5, 150 mM KCl, 3 mM MgCl2, 0.01% Triton X-100, 500 ug/ml BSA, 20 U/ml SUPERase-In, 4 C; UNK is unkempt and MSI1 is Musashi-1; names of the RNAs are library labels; protein concentration not given here; high values mean tight binding.
B1 showed a binding signal of 1.77 enrichment R. B2: the binding signal was found to be 2.22 enrichment R.

Consider B3, for which the binding signal amounted to 1.48 enrichment R.

As to B4, the binding signal is 1.29 enrichment R. The molecule B5 displayed a binding signal of 0.798 enrichment R.

With B6, the binding signal came out at 0.519 enrichment R. Next, B7: 0.964 enrichment R. Molecule B8 displayed a binding signal of 0.906 enrichment R. B9: the binding signal is 2.48 enrichment R.

As to B10, the binding signal is 0.772 enrichment R. Under B11 stands 0.849 enrichment R; under B12, 1.39 enrichment R. Next, B13: 0.768 enrichment R.

As to B14, the binding signal worked out at 0.848 enrichment R.
